Experimental data from paper PMC11601948.
Read-outs that look alike come from different tables or passages of the source. Results are given in words; binding and its absence hold for the method and conditions named. In cells and extracts the contact can be indirect. Some results given as binding are weak or reduced against the parent protein; the word gives no strength. For some of these results: Sequences can lack the tags named with a protein.

Protein sequences, listed by entry. Tags and fused reporters are not part of them. Lines headed by an entry give the natural chain unless they say otherwise; changes in a name come on top.
UniProt P12956: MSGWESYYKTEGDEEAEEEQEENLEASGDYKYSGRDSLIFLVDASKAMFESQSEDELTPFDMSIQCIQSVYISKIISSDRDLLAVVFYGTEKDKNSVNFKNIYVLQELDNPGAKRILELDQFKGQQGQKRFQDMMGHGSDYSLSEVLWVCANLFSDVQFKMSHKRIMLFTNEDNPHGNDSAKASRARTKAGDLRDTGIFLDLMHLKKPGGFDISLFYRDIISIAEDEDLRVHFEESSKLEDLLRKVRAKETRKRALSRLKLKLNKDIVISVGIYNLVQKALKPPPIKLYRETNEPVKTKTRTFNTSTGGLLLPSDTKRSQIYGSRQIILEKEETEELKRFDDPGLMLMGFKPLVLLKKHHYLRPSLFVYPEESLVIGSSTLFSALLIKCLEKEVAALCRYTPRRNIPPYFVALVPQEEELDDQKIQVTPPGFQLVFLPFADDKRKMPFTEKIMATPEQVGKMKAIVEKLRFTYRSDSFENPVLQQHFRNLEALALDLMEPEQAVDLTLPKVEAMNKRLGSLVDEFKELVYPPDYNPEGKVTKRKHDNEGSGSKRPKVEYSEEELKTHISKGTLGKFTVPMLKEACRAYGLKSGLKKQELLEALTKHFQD
UniProt P23475: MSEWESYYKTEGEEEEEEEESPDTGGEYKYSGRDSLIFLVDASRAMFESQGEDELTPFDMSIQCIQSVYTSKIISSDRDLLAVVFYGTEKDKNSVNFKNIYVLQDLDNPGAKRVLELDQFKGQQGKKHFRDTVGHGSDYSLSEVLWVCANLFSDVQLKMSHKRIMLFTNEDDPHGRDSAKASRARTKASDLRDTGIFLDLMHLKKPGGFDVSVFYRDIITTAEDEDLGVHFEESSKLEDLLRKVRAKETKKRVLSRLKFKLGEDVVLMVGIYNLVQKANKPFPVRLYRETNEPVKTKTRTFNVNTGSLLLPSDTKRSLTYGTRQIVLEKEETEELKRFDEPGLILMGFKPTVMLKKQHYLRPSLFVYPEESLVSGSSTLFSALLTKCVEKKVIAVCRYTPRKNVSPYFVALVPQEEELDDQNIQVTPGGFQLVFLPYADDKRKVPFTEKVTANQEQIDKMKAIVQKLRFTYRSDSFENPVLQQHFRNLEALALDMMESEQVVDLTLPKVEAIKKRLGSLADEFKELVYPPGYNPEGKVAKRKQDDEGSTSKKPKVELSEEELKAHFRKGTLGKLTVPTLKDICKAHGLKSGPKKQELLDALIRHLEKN

T1: Foxp3, endogenous in mouse iTregs (mouse (endogenous in iTregs)) (UniProt Q99JB6)
T1 sequence: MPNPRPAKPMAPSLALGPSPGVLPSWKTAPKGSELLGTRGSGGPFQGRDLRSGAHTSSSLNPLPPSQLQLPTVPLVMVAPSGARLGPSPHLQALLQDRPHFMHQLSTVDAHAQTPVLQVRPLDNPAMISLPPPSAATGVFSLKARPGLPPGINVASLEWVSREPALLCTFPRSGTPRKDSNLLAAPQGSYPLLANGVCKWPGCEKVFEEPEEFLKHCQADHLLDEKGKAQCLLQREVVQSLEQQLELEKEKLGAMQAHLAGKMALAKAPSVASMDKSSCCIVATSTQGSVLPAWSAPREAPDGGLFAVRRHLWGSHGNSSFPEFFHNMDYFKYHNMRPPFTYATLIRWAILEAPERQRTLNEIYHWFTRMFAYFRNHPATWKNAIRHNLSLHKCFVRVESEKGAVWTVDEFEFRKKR


Tests used:
Flag-Ku70 [1] = target: Flag-Ku70 (UniProt P12956); assay: co-IP; HEK293T cotransfected with Flag- and Myc-tagged plasmids; RIPA lysate; IP with anti-Flag antibody plus protein A/G beads at 4°C; Western blot
[2] = target: FOXP3, endogenous in human iTregs (human (endogenous in iTregs)) (UniProt Q9BZS1); assay: co-IP; endogenous IPs with anti-Ku70 or anti-FOXP3 antibody in human iTregs induced in vitro; Western blot
[3] = target: T1, Foxp3, endogenous in mouse iTregs (mouse (endogenous in iTregs)); assay: co-IP; endogenous IPs with anti-Foxp3 or IgG antibody in mouse iTregs (from WT or cKO mice) after 5 days of induced differentiation; Western blot
Flag-FOXP3 [4] = target: Flag-FOXP3 (UniProt Q9BZS1); assay: co-IP; HEK293T cotransfected with Flag- and Myc-tagged plasmids; RIPA lysate; IP with anti-Flag antibody plus protein A/G beads at 4°C; Western blot
Flag-FOXP3 [5] = target: Flag-FOXP3 (UniProt Q9BZS1); assay: co-IP; HEK293T cotransfected with Flag-FOXP3/Myc-Ku70; DNase I (10 U) added to the lysate; IP with anti-FLAG antibody; Western blot
Flag-Ku70 [6] = target: Flag-Ku70 (UniProt P12956); assay: co-IP; HEK293T cotransfected with Flag- and Myc-tagged plasmids; RIPA lysate; IP with anti-Flag antibody plus protein A/G beads at 4°C; Western blot; remark: listed apart in the source

| binding (Flag-FOXP3 [4]) | Molecule | further results |
| --- | --- | --- |
| – | FOXP3-C2 (238–431 aa), Myc-tagged (from UniProt Q9BZS1 238-431) (domain or fragment) | binding (Flag-Ku70 [1]): no binding |
| – | Ku70, endogenous in human iTregs (from UniProt P12956 1-609) | binding [2]: binds |
| – | Ku70, endogenous in mouse iTregs (from UniProt P23475 1-608) | binding [3]: binds |
| binds | Ku70-C1 (amino acids 351–609), Myc-tagged (from UniProt P12956 351-609) (domain or fragment) | – |
| no binding | Ku70-C2 (amino acids 500–609), Myc-tagged (from UniProt P12956 500-609) (domain or fragment) | – |
| binds | Ku70-N1 (amino acids 1–500), Myc-tagged (from UniProt P12956 1-500) (domain or fragment) | – |
| no binding | Ku70-N2 (amino acids 1–351), Myc-tagged (from UniProt P12956 1-351) (domain or fragment) | – |
| binds | Myc-Ku70 full-length (WT) (from UniProt P12956 1-609) | binding (Flag-FOXP3 [5]): binds |
| – | FOXP3-C1 (268–431 aa), Myc-tagged (domain or fragment, UniProt Q9BZS1 268-431) KASSVASSDKGSCCIVAAGSQGPVVPAWSGPREAPDSLFAVRRHLWGSHGNSTFPEFLHNMDYFKFHNMRPPFTYATLIRWAILEAPEKQRTLNEIYHWFTRMFAFFRNHPATWKNAIRHNLSLHKCFVRVESEKGAVWTVDELEFRKKRSQRPSRCSNPTPGP | binding (Flag-Ku70 [6]): no binding |
